Reference: PubChem BioAssay AID686971 (National Center for Advancing Translational Sciences (NCATS), 2013)
Several values for one entry are separate records, joined by “and”; a condition that tells them apart may be missing. Equal values may be shown once. About 7,500 (2.1%) of roughly 360,000 compounds were called active. Inconclusive means that the source gave no clear call. Such entries were picked first, then a sample of the others. The call rests on the fitted dose curve; in most records, active means well fitted cell-killing curve with a large enough effect; inconclusive means small, poorly fitted or top-dose-only effect, or effect the other way, or another doubt; inactive means no such curve, though single readings can be large or run the other way. No potency is given beside an inconclusive call; the fits are too rough.

Test: qHTS for induction of synthetic lethality in tumor cells producing 2HG: qHTS for the HT-1080-IDH1KD cell line;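 on activity, negative = toxicity: 0% = DMSO wells and -100% = cell-free medium wells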
Conditions: HT-1080 IDH1 knockdown viability, ATP luminescence, 48 h; activity, negative = toxicity: at 46.1 µM (top of the series) unless noted
Summary of the method: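 Using the IDH1-knockdown HT-1080 line run in the same batch and compound series as the NT line, viability after 48 h at 37 °C was determined by CellTiter-Glo luminescence and expressed as % activity.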
Potency means the concentration at half of the fitted maximal effect; tags describe the fitted curve by direction and shape.

| SMILES | Potency | activity, negative = toxicity |
| --- | --- | --- |
| CC(=O)c1cc2c(cc1NS(=O)(=O)c1ccc(C)cc1)OCCO2 | active: 16.4 µM | – |
| O=C1N/C(=N/NC(=O)c2cccc3ccccc23)S/C1=C\c1ccccc1OCc1ccccc1 | inconclusive [cytotoxic, single point] | – |
| O=C(Nc1cccc(Oc2ccccc2)c1)C1Cc2c(-c3ccc4c(c3)OCO4)ccnc2O1 (stereo not given) | inconclusive [cytotoxic, single point] | – |
| COC(=O)c1c(C(=O)OC)c(-c2ccc(OC)cc2)n2c1CS(=O)(=O)C2 | inactive | – |
| O=C(NCCCN1CCN(CCCNC(=O)c2cccc(Cl)c2)CC1)c1cccc(Cl)c1 | inactive | – |
| O=c1[nH]c(/C=C/c2ccccc2OC(F)F)nc2c1cnn2-c1ccccc1 | inconclusive [cytotoxic, single point] | – |
| CCc1nc(N)nc(N)c1-c1ccc(Cl)cc1 | active: 1 µM and active: 1.16 µM | – |
| COc1ccccc1-c1cc(NC(C)=O)c2ncc(-c3cccc(C(F)(F)F)c3)n2c1 | inconclusive [cytotoxic, single point] | – |
| O=C(NN=C1CCCC1)c1n[nH]c2c1CCCC2 | inconclusive [cytotoxic, single point] | – |
| CC(C)c1ccc(CN2CCC2(C)C(=O)Nc2ccc3c(c2)OCO3)cc1 (stereo not given) | inconclusive [cytotoxic, single point] | – |
| O=C(NNC(=O)c1ccccc1O)c1ccc(NS(=O)(=O)c2ccc(F)cc2)cc1 | inconclusive [cytotoxic, single point] | – |
| Nc1nc(N)c2cc(Sc3ccc(Cl)cc3)ccc2n1 | active: 5.8 µM | – |
| CN(C)CCn1c2ccccc2c2nc3ccc([N+](=O)[O-])cc3cc21 | inconclusive [cytotoxic, full curve, poor fit] | – |
| Cc1nnnn1/C(=C\c1ccccc1)C(=O)OCC(=O)NC1CCCCC1 | active: 18.4 µM | – |
| CC1(C)SC(=S)N(/N=C/c2ccc(O)cc2)C1N(O)C(=O)Nc1ccc([N+](=O)[O-])cc1 (stereo not given) | inconclusive [cytotoxic, partial curve] | – |
| CCCCn1c(N)c(N(C(=O)CSc2nnnn2-c2ccc(C)cc2)C2CCCC2)c(=O)[nH]c1=O | inactive | – |
| CCOC(=O)N1CC(C)N(CC(O)CN2CCOCC2)CC1C (stereo not given) | inactive | – |
| O=C(Nc1cc(Cl)ccc1O)c1snnc1-c1ccccc1 | inconclusive [cytotoxic, partial curve] | – |
| COc1ccc(C(=O)c2cc([N+](=O)[O-])ccc2N2CCCC2)cc1 | active: 3.26 µM | – |
| Cc1nnc(SCC(=O)Nc2sc3c(c2C(N)=O)CCC(C)C3)[nH]c1=O (stereo not given) | inactive | – |
| Cc1nc(NC(=O)c2ccc(Cl)cc2)sc1Cc1ccc2c(c1)OCO2 | active: 6.51 µM | – |
| CN1CCN(c2ncnc3c2ncn3[C@H]2CN(C)C[C@@H](CO)O2)CC1 | inconclusive [rising, single point] | – |
| COc1cccc(CNCCc2c[nH]c3ccccc23)c1OCc1ccccc1F | inconclusive [cytotoxic, partial curve] | – |
| Cc1cc(Cl)ccc1NC(=O)C1CCN(S(C)(=O)=O)CC1 | inactive | – |
| CC(NC(=S)Nc1ccc(OC(F)F)c(Cl)c1)C(C)(C)C (stereo not given) | inconclusive [cytotoxic, single point] | – |

| SMILES | Potency | activity, negative = toxicity |
| --- | --- | --- |
| CC1CCCCC1NC(=O)CCCCn1c(=O)[nH]c2ccsc2c1=O (stereo not given) | inactive | – |
| O=C(NCc1ccccc1)C1Cc2c(-c3cccc(F)c3)ccnc2O1 (stereo not given) | active: 1.16 µM | – |
| Cc1cccc(S(=O)Cc2ccc(C(=O)N3CCN(C(=O)c4ccco4)CC3)o2)c1 (stereo not given) | inactive | – |
| COC(=O)c1ccc(NC(=O)CN(Cc2ccc(Cl)cc2)S(C)(=O)=O)cc1 | inconclusive [cytotoxic, single point] | – |
| COc1ccc(C)cc1-n1nnnc1SCc1nc(N)nc(N(C)C)n1 | inconclusive [cytotoxic, single point] | – |
| Cc1ccc(-c2cc(C(=O)O)c3cc(Br)ccc3n2)o1 | inactive | – |
| CCOc1ccc(N(CC(=O)NCc2ccc(F)cc2)C(=O)c2snc(C(N)=O)c2N)cc1 | inactive | – |
| CCn1cc(CN2CCc3c([nH]c4ccccc34)C2c2ccc(F)c(OC)c2)c(C)n1 (stereo not given) | inconclusive [cytotoxic, single point] | – |
| NC(=O)CN1CCN(CCN2C(=O)c3cccc4cccc(c34)C2=O)CC1 | inactive | – |
| COc1cc(OC)c(CN2CCC(Cc3ccccc3)CC2)cc1Br | inactive | – |
| CCN1CCN(CC(=O)Nc2sc3c(c2C#N)CCC(C)C3)CC1 (stereo not given) | inconclusive [cytotoxic, single point] | – |
| COc1ccc(S(=O)(=O)N2CCCOC2CNC(=O)C(=O)NCCCN2CCOCC2)cc1C (stereo not given) | inactive | – |
| O=C(CSc1n[nH]c(-c2ccccn2)n1)Nc1ccc(Cl)cc1 | inconclusive [cytotoxic, partial curve] | – |
| CCCN(CCC)c1ccc(/C=C/c2ccc3cc(OCC)ccc3n2)cc1 | inactive | – |
| C=CCn1c(N)c(C(=O)N2CCN(C)CC2)sc1=S | inconclusive [cytotoxic, single point] | – |
| CCC(C(=O)NC(C)(C)C)N(C(=O)Cn1nnc(-c2ccccc2F)n1)c1cnc2ccccc2c1 (stereo not given) | inactive | – |
| BrC(=C\c1ccccc1)/C=N/N1CCN(c2ccccc2)CC1 | inconclusive [cytotoxic, single point] | – |
| CCN1CC2=C(OC(N)=C(C#N)C2c2cccs2)/C(=C/c2cccs2)C1 (stereo not given) | inconclusive [cytotoxic, partial curve] | – |
| CCn1c2ccc(F)cc2c2nnc(NN)nc21 | inactive | – |
| CC(=O)c1c(C)n([O-])c2cc(F)c(F)cc2[n+]1=O | inconclusive [cytotoxic, single point] | – |
| COc1cccc(/C=N/NC(=O)C(=O)N/N=C/c2cccc(OC)c2OC)c1OC | active: 23.1 µM | – |
| C1CCC(C(CC2CCCCN2)C2CCCCC2)CC1 (stereo not given) | active: 23.1 µM and active: 16.4 µM | – |
| C/C(=N\NC(=O)CN1CCCCC1)c1ccccc1O | inconclusive [cytotoxic, single point] | – |
| O=C(Cc1csc(NC(=O)c2ccccc2)n1)NO | inconclusive [cytotoxic, partial curve] | – |
| O=C1/C(=C\c2ccccc2)CCc2c1[nH]c1ccccc21 | active: 11.6 µM | – |

| SMILES | Potency | activity, negative = toxicity |
| --- | --- | --- |
| C/C(=N\NC(=O)c1cc2ccccc2cc1O)c1ccccn1 | inconclusive [cytotoxic, full curve] | – |
| Cn1nc(C(=O)NCCc2ccc(S(N)(=O)=O)cc2)c2ccccc2c1=O | inactive | – |
| N#Cc1nc(-c2ccccc2)oc1N1CCCCC1 | inconclusive [rising, partial curve] | – |
| C[C@H](CO)N1C[C@H](C)[C@@H](CN(C)Cc2ccc(Cl)c(Cl)c2)OCCCC[C@H](C)Oc2ccc(NC(=O)CCC(F)(F)F)cc2C1=O | inconclusive [cytotoxic, single point] | – |
| Cc1ccc(O)c(NC(=O)C2CC(c3c(F)cccc3Cl)=NO2)c1 (stereo not given) | inactive | – |
| CCOC(=O)CN(Cc1ccccc1)S(=O)(=O)c1ccc(NC(C)=O)cc1 | inconclusive [cytotoxic, single point] | – |
| [N-]=[N+]=NC(c1ccccc1)C(NC(=O)c1cc(C(F)(F)F)cc(C(F)(F)F)c1)c1ccccc1 (stereo not given) | inconclusive [cytotoxic, partial curve] | – |
| Cc1cc(=O)c2ccccc2n1Cc1ccccc1 | inconclusive [cytotoxic, single point] | – |
| Cc1cccc[n+]1CC(=O)Nc1ccc([N+](=O)[O-])cc1Cl | – | inconclusive: -41.4% [cytotoxic] |
| COc1ccc(N2CC(C(=O)Nc3nc4ccc(OC)cc4s3)CC2=O)cc1 (stereo not given) | inactive | – |
| CCOC(=O)c1ccc(N2C(=O)C3ON(c4ccccc4)C(c4ccco4)C3C2=O)cc1 (stereo not given) | inactive | – |
| N#Cc1ccc(-c2csc(NNC(=O)c3ccc(Br)cc3)n2)cc1 | active: 5.17 µM | – |
| CC(CC(=O)Nc1ccc2c(c1)c(=O)n(C)n2-c1ccccc1)c1ccccc1 (stereo not given) | active: 2.91 µM | – |
| CCCn1c(N)c(C(=O)CSc2ncc(C(F)(F)F)cc2Cl)c(=O)[nH]c1=O | inactive | – |
| CCC(CO)Oc1cc(NCc2ccc(C)cc2)c2ncn(C(C)C)c2c1 (stereo not given) | inactive | – |
| O=C(N/N=C/c1ccc(Cl)c([N+](=O)[O-])c1)c1cc(-c2ccc3c4c(cccc24)CC3)n[nH]1 | active: 8.2 µM | – |
| COc1ccc(C(=O)c2ccc(C)cc2)c(OC)c1OC | active: 18.4 µM | – |
| CCOC(=S)SCC(=O)Nc1nccs1 | inconclusive [cytotoxic, single point] | – |
| Cc1ccccc1S(=O)(=O)N(C)C[C@@H]1OCc2cnnn2CCCC(=O)N([C@H](C)CO)C[C@@H]1C | inactive | – |
| CN(C)CCNC(=O)c1cccc(-c2cnc3c(NC=O)cc(-c4cccs4)cn23)c1 | inconclusive [cytotoxic, single point] | – |
| O=C(NCc1cccs1)c1ccccc1[N+](=O)[O-] | inactive | – |
| Cc1ccc2c(c1)c(C)cc[n+]2Cc1ccccc1 | inconclusive [cytotoxic, partial curve, poor fit] | – |
| O=C1C=C(c2ccccc2)C[C@@H](c2ccc3c(c2)OCO3)C1 | inactive | – |
| Cc1ccc([N+](=O)[O-])cc1NC(=O)CN(C(=O)c1ccc(Cl)cc1)C1CCCCC1 | inconclusive [cytotoxic, single point] | – |
| COc1ccc(NC(=O)/C(Cl)=C(/Cl)S(=O)Cc2ccc(Cl)cc2)cn1 (stereo not given) | active: 0.92 µM | – |
